Reference: the supplement of paper PMC10320760
This is a noisy data set.

B1: Ydj1; a variant is named by its letters at X, in order (parent)
chain: MVKETKFYDILGVPVTATDVEIKKAYRKCALKYHPDKNPSEEAAEKFKEASAAYEILSDPEKRDIYDQFGEDGLSGAGGAGGFPGGGFGFGDDIFSQFFGAGGAQRPRGPQRGKDIKHEISASLEELYKGRTAKLALNKQILCKECEGRGGKKGAVKKCTSCNGQGIKFVTRQMGPMIQRFQTECDVCHGTGDIIDPKDRCKSCNGKKVENERKILEVHVEPGMKDGQRIVFKGEADQAPDVIPGDVVFIVSERPHKSFKRDGDDLVYEAEIDLLTAIAGGEFALEHVSGDWLKVGIVPGEVIAPGMRKVIEGKGMPIPKYGGYGNLIIKFTIKFPENHFTSEENLKKLEEILPPRIVPAIPKKATVDECVLADFDPAKYNRTRASRGGANYDSDEEEQGGEGVQCXXX

Variants of: B1
Assay: enrichment factor, frequency at 37 °C / frequency at 25 °C (thermotolerance selection) (ratio); higher = more growth at 37 °C, higher likelihood of farnesylation
Conditions: with Saccharomyces cerevisiae ydj1Δ (yWS304); selective temperature 37 °C; reference temperature 25 °C
In the case of YYP, the enrichment factor is reported as 0.222. For DYQ, the enrichment factor was 1.39. With EYQ the enrichment factor was 2.08. FYQ gave an enrichment factor of 2.46. GYQ was tested, and the enrichment factor was 1.28. In the case of HYQ, the enrichment factor is reported as 3.07. In the case of IYQ, the enrichment factor is reported as 1.75. KYQ gave an enrichment factor of 3.19. AYQ was tested, and the enrichment factor was 2.13. LYQ gave an enrichment factor of 1.83. In the case of MYQ, the enrichment factor is reported as 1.8. For NYQ, the enrichment factor was 2.08. With PYQ the enrichment factor was 1.42. QYQ showed an enrichment factor of 2.81. RYQ showed an enrichment factor of 1.49. For SYQ, the enrichment factor was 2.32. For TYQ, the enrichment factor was 2.66. For VYQ, the enrichment factor was 2.11. WYQ showed an enrichment factor of 1.53. For CYQ, the enrichment factor was 1.37. For YYQ, the enrichment factor was 2.37. For DYR, the enrichment factor was 0.114. Work on EYR yielded an enrichment factor of 0.163. FYR showed an enrichment factor of 0.12. GYR was tested, and the enrichment factor was 0.169. Variant HYR has an enrichment factor of 0.268. With IYR the enrichment factor was 0.1. For KYR, the enrichment factor was 0.0965. AYR was tested, and the enrichment factor was 0.205. With LYR the enrichment factor was 0.14. MYR gave an enrichment factor of 0.155. NYR was tested, and the enrichment factor was 0.209. PYR showed an enrichment factor of 0.123. QYR showed an enrichment factor of 0.122. Variant RYR has an enrichment factor of 0.122. SYR gave an enrichment factor of 0.0852. Variant TYR has an enrichment factor of 0.144. VYR gave an enrichment factor of 0.158. WYR gave an enrichment factor of 0.228. Work on CYR yielded an enrichment factor of 0.186. YYR was tested, and the enrichment factor was 0.0869. DYS was tested, and the enrichment factor was 0.578. For EYS, the enrichment factor was 1.67. Work on FYS yielded an enrichment factor of 1.94. GYS gave an enrichment factor of 1.64. HYS showed an enrichment factor of 3.23. IYS was tested, and the enrichment factor was 2.12. With KYS the enrichment factor was 1.97. With AYS the enrichment factor was 2.72. LYS gave an enrichment factor of 2.54. For MYS, the enrichment factor was 2.57. Variant NYS has an enrichment factor of 2.47. Work on PYS yielded an enrichment factor of 1.7. Variant QYS has an enrichment factor of 2.54. RYS showed an enrichment factor of 2.09. SYS gave an enrichment factor of 2.83. TYS was tested, and the enrichment factor was 2.03. Work on VYS yielded an enrichment factor of 0.939. In the case of WYS, the enrichment factor is reported as 1.25. In the case of CYS, the enrichment factor is reported as 2.5. YYS showed an enrichment factor of 2.2. In the case of DYT, the enrichment factor is reported as 0.386. EYT gave an enrichment factor of 1.76. FYT showed an enrichment factor of 2.02. GYT showed an enrichment factor of 1.39. Work on HYT yielded an enrichment factor of 1.63. Work on IYT yielded an enrichment factor of 2.06. KYT was tested, and the enrichment factor was 1.46. AYT was tested, and the enrichment factor was 1.84. In the case of LYT, the enrichment factor is reported as 2.08. With MYT the enrichment factor was 1.91. NYT gave an enrichment factor of 1.6. PYT gave an enrichment factor of 1.74. QYT showed an enrichment factor of 2.23. Variant RYT has an enrichment factor of 1.58. SYT gave an enrichment factor of 1.97. TYT was tested, and the enrichment factor was 2.77. VYT showed an enrichment factor of 2.2. Variant WYT has an enrichment factor of 1.68. Variant CYT has an enrichment factor of 1.31. Variant YYT has an enrichment factor of 1.71. DYV showed an enrichment factor of 0.543. With EYV the enrichment factor was 1.39. With FYV the enrichment factor was 1.38. GYV gave an enrichment factor of 1.4. HYV gave an enrichment factor of 2.83. Work on IYV yielded an enrichment factor of 2.39. With KYV the enrichment factor was 1.28. AYV gave an enrichment factor of 2.23. LYV gave an enrichment factor of 2.36. MYV gave an enrichment factor of 1.87. For NYV, the enrichment factor was 1.71. PYV showed an enrichment factor of 1.64. QYV showed an enrichment factor of 2.6. With RYV the enrichment factor was 1.55. SYV was tested, and the enrichment factor was 2.09. TYV was tested, and the enrichment factor was 2.43. With VYV the enrichment factor was 0.827. For WYV, the enrichment factor was 1.88. CYV gave an enrichment factor of 0.649. YYV gave an enrichment factor of 1.75. In the case of DYW, the enrichment factor is reported as 0.391. EYW was tested, and the enrichment factor was 1.29. Work on FYW yielded an enrichment factor of 1.3. With GYW the enrichment factor was 0.849. HYW gave an enrichment factor of 0.699. Variant IYW has an enrichment factor of 0.853. Work on KYW yielded an enrichment factor of 0.543. LYW was tested, and the enrichment factor was 0.841. AYW gave an enrichment factor of 1.43. In the case of MYW, the enrichment factor is reported as 1.13. NYW showed an enrichment factor of 0.473. PYW was tested, and the enrichment factor was 0.745. Work on QYW yielded an enrichment factor of 1.21. For RYW, the enrichment factor was 0.656. SYW gave an enrichment factor of 0.907. Work on TYW yielded an enrichment factor of 0.906. With VYW the enrichment factor was 1.28. WYW showed an enrichment factor of 0.883. Work on YYW yielded an enrichment factor of 1.27. Variant CYW has an enrichment factor of 0.313. DYY showed an enrichment factor of 0.91. Work on EYY yielded an enrichment factor of 1.21. FYY was tested, and the enrichment factor was 1.55. For GYY, the enrichment factor was 2.05. In the case of HYY, the enrichment factor is reported as 1.37. IYY was tested, and the enrichment factor was 2. KYY gave an enrichment factor of 0.631. LYY was tested, and the enrichment factor was 0.924. Variant AYY has an enrichment factor of 2.08. MYY gave an enrichment factor of 1.11. Variant NYY has an enrichment factor of 1.18. PYY showed an enrichment factor of 1.44. QYY gave an enrichment factor of 1.38. In the case of RYY, the enrichment factor is reported as 1.32. For SYY, the enrichment factor was 2.07. With TYY the enrichment factor was 2.04. Work on VYY yielded an enrichment factor of 2.52. With WYY the enrichment factor was 0.936. For YYY, the enrichment factor was 1.53. CYY gave an enrichment factor of 0.27.
